Reference: article PMC5175582, “The Functions of the A1A2A3 Domains in Von Willebrand Factor Include Multimerin 1 Binding” (Thrombosis and Haemostasis, 2016)

T1: Biotin-labelled MMRN1 (human, UniProt Q13201 20-1228, biotin (sites not given))
T1 construct: multimerin 1 (MMRN1), human; recombinant; Same protein as m1, biotin-labelled for SPR; Homopolymer; also called MMRN1-coated sensor chips; biotin-labelled MMRN1 (immobilised on streptavidin-coated sensor chips)
T1 sequence (looked up): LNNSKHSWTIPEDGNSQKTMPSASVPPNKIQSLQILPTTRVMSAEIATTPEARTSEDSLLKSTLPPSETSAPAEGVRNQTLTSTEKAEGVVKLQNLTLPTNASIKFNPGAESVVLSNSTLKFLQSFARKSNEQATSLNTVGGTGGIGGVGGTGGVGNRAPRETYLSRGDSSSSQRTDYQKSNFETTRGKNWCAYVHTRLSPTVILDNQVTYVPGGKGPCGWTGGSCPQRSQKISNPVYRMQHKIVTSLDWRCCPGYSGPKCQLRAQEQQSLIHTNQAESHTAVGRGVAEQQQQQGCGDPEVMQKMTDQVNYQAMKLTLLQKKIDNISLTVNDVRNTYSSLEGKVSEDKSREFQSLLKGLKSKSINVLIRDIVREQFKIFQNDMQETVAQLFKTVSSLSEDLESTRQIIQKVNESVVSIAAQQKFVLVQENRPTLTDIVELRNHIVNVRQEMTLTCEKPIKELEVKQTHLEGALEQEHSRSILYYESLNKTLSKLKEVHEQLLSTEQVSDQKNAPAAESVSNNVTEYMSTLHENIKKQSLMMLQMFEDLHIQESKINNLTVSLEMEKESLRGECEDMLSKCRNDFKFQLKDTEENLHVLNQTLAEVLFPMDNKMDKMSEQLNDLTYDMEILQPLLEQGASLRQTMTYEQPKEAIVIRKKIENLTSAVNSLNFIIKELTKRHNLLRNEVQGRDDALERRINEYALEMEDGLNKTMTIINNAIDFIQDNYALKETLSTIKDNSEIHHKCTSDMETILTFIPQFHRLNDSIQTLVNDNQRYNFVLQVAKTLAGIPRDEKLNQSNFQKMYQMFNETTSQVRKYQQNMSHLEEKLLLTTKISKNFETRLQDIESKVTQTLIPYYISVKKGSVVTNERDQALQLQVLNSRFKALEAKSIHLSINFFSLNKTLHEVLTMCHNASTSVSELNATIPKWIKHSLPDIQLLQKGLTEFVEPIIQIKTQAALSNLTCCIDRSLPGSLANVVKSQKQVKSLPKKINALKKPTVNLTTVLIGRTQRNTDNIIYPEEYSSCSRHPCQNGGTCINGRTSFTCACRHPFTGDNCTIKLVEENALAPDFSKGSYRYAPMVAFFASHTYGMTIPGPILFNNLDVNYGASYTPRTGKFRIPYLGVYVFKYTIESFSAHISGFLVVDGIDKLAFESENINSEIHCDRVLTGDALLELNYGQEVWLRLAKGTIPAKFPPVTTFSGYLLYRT


Target: T1, Biotin-labelled MMRN1
Assay: SPR; BIAcoreX; biotin-labelled MMRN1 immobilised on streptavidin-coated sensor chips (500–1000 RU); VWF A domains perfused in HEPES-Tyrode running buffer with 0.005 % P-20; two-state conformational model for A1A2A3 and A1, 1:1 Langmuir model for A3; apparent affinity
Settings: both partners purified

Row | Kd [nM] | koff [s⁻¹] | kon [M⁻¹ s⁻¹] | Binder
1 | 2 | – | – | Monomeric VWF A1A2A3 (domain or fragment) not shown
2 | 229 | 0.0018 | 8800 | Monomeric VWF A3 domain (domain or fragment) not shown
